Sequences and labels used below:
B1: LINE1-mini (parent)
chain: GGCAGAGCUCAACACAGCGUGGCAAAGUGGCUGUGGCUAGACUGCC

Read counts are not given, so values of variants with three or more changes are uncertain.

The data set covers variants of B1. The data set is described as follows: self-cleavage, relative activity (ratio to wild type); higher = more cleavage; in vitro, sequencing; the parent is a self-cleaving ribozyme.
Take GGCAGAGGACAACACAGCGUGGCAAAGUGGCUGUGGGUCGUCUGCC [C8G U9A C37G A39C A41U]: the self-cleavage is 0.01.

For GGCAGAGGUCAACACAGCGUCGCAAAGUGGCUGUGGCUAGGCUGCC [C8G G21C A41G], the self-cleavage was 0.14.

On to GGCAGAGGUCAACACAGCGUGGUAAAGUGGCUGUUGCUAGACUGCC [C8G C23U G35U], for which the self-cleavage amounted to 0.15.

As for GGCAGAGGUCAACACAGCGUGGCAAAGUGGCUGUGGCUAGACUGUG [C8G C45U C46G], the self-cleavage stood at 0.06.

GGCAGAGGUCAACACACUGUGGCAAAGUGGCUGUGGCUAGAAUGCC [C8G G17C C18U C42A]: the self-cleavage amounted to 0.08.

Consider GGCAGAGGUCAAUACAGCGUGGCAAAGUGGCUGUGGCACGACUGCA [C8G C13U U38A A39C C46A], for which the self-cleavage amounted to 0.11.

Take GGCAGAGGUCAACACAGCGUGAAAAAGUGGCUGUGGCAAGACUGCC [C8G G22A C23A U38A]: the self-cleavage worked out at 0.02.

On to GGCAGAGGUCAACACAGCGUGGCAAAGUGGCUAUGGCUAGACCGCC [C8G G33A U43C], for which the self-cleavage is 0.01.

Turning to GGCAGAGGUCAACACAGCGUGGCAAAGUGGCGGUGGCUAGCCUGCC [C8G U32G A41C], the self-cleavage was 0.13.

As to GGCAGAGGUCAACACAGAGUGGCAGAGUGGCUGUGGCUAGACUGCA [C8G C18A A25G C46A], the self-cleavage came to 0.07.

As to GGCAGAGGGCAACACAGCUUGGCAAUGUGGCUGUGGCUAGACUGCC [C8G U9G G19U A26U], the self-cleavage came to 0.01.

For GGCAGAGGUCAAGGCAGCGUGGCAUCGUGGCUGUGGCUAGACUGCC [C8G C13G A14G A25U A26C], the self-cleavage came out at 0.07.

As to GGCAGAGGUCAACACAGCGUGGCAAAGUGGCUGUGGCUAGAAAGCC [C8G C42A U43A], the self-cleavage was found to be 0.02.

As for GGCAGAGGUCAACACAGCUUGGCAAAGUGGCUUUGGCUAGACUCCC [C8G G19U G33U G44C], the self-cleavage was determined as 0.04.

With GGCAGAGGCAAACACAGUGUGGCAAAGUGGCUGUGGCUAGACUUUC [C8G U9C C10A C18U G44U C45U], the self-cleavage turned out to be 0.

As to GGCAGAGGUCAACACAGCGUGGCAAAGUUGCUGGGGUUAGACUGCC [C8G G29U U34G C37U], the self-cleavage stood at 0.09.

As to GGCAGAGGUCAACACAGUAUGGCAAAGUGGCUGCGGCUAGACUGCC [C8G C18U G19A U34C], the self-cleavage worked out at 0.04.

Consider GGCAGAGGUCAACACAGCGUGGUAAAGUGGUUGUUGCUAGACUGCC [C8G C23U C31U G35U], for which the self-cleavage came out at 0.01.

Take GGCAGAGGUCAACACAGCUUGGCAAAGUGGGUGUGUCUAGACUACG [C8G G19U C31G G36U G44A C46G]: the self-cleavage came out at 0.

As for GGCAGAGGUCAACACAGCGUGACAAAGUGGCUGUCGCUAGACUUCC [C8G G22A G35C G44U], the self-cleavage was found to be 0.01.

Regarding GGCAGAGGUCAACACAUCGUUGCAAAGUGCCUGUGGCUAGACUGCU [C8G G17U G21U G30C C46U], the self-cleavage stood at 0.02.

Consider GGCAGAGGUCAACACAGCGUGGCAAAAAUGCUGUGUCUAUACUGCC [C8G G27A U28A G29U G36U G40U], for which the self-cleavage worked out at 0.01.

For GGCAGAGGUCAACACAGCGUGGCAAAGUGGCUGUGGCUACAAUGCC [C8G G40C C42A], the self-cleavage turned out to be 0.15.

Regarding GGCAGAGGUCAAUACAGCGUGGCAAUGUGGCUGUCGCUAGACUGCC [C8G C13U A26U G35C], the self-cleavage was 0.25.

Turning to GGCAGAGUUCGACACAGCGUGGAAAAGUGGCUGGGGCUAGACUGCC [C8U A11G C23A U34G], the self-cleavage amounted to 0.01.

With GGCAGAGGUCAACAGAGUGUGACAAAAUGGCUGUGGCUAGACCGCC [C8G C15G C18U G22A G27A U43C], the self-cleavage came out at 0.01.

Consider GGCAGAGGUCAACACAGCGUGGCAAAGUGACUGUGGCUAGACUGCA [C8G G30A C46A], for which the self-cleavage is 0.01.

Turning to GGCAGAGGUCAAGAAAGCGCGGCAAAGUCGCUGUGGCAGGACUGCC [C8G C13G C15A U20C G29C U38A A39G], the self-cleavage stood at 0.01.

Regarding GGCAGAGGUCAACACAGCGUGGCAAAGUAGCUCCGGCUAGACUGCA [C8G G29A G33C U34C C46A], the self-cleavage is 0.02.

Consider GGCAGAGGUCAACACAGUGUGGCAAAGUGACGGUGUCUAGACUGCC [C8G C18U G30A U32G G36U], for which the self-cleavage amounted to 0.05.

As to GGCAGAGGUCAACACAGCGUGGAAAAAUGGCUGCGGCUAGACUGCC [C8G C23A G27A U34C], the self-cleavage was found to be 0.08.

GGCAGAGGUCAAUACAGCGUGGCAAAAUGGUUGUGACUAAACUGCC [C8G C13U G27A C31U G36A G40A]: the self-cleavage was 0.02.

Turning to GGCAGAGGUCAACACAGCGUGCCAAAGUGGCUGUGGCUAGACUGGC [C8G G22C C45G], the self-cleavage stood at 0.02.

For GGCAGAGGUCAAAACAGCGUGGCAAAGUGGCUGUGGCUAGCCUGCC [C8G C13A A41C], the self-cleavage amounted to 0.02.

In the case of GGCAGAGGUCAACACAGCGUAGCAUACUGGCUGUUGCUAGACUGUC [C8G G21A A25U G27C G35U C45U], the self-cleavage turned out to be 0.01.

Regarding GGCAGAGGGCAACACAGCGUGGCGAAGUGGCUGUGGCUAGACUGCC [C8G U9G A24G], the self-cleavage was 0.05.

Turning to GGCAGAGGUCAACACAGCGUGGCAAAGUGGCUGUGGAUAGACUACC [C8G C37A G44A], the self-cleavage worked out at 0.02.

As for GGCAGAGGUCAACACAGAGUGGCAAAAUGGCUGUGGCUAGACUGCC [C8G C18A G27A], the self-cleavage turned out to be 0.01.

Take GGCAGAGGUCAAAACAGCGUGGAAAAGUGGCUGUGCGUAGACUGCC [C8G C13A C23A G36C C37G]: the self-cleavage stood at 0.05.

Turning to GGCAGAGGUCAAAACAGCGUUGCCAAGUGGCUGUGGCUAGACUGCC [C8G C13A G21U A24C], the self-cleavage was determined as 0.03.

Turning to GGCAGAGGACAACAAAGCGUGGCAAUGUGGCUGUGUCUAGACUGCC [C8G U9A C15A A26U G36U], the self-cleavage amounted to 0.09.

In the case of GGCAGAGUUCCAUACAGCGUGGCAAAGUGGCUGUGGCUAGGCUGCC [C8U A11C C13U A41G], the self-cleavage is 0.01.

Regarding GGCAGAGGUCAACACAGCGUGGGAAAGUGGCUGUGGCUAGACUGCA [C8G C23G C46A], the self-cleavage stood at 0.02.

In the case of GGCAGAGGUCAACACAGAGUCGCAAAGUGGCUGUGGCUAGACUGCC [C8G C18A G21C], the self-cleavage was determined as 0.04.

GGCAGAGGGCAACACAGCGUGGCAGAGUGGCUGUGGCUGGACUGCC [C8G U9G A25G A39G]: the self-cleavage turned out to be 0.01.

For the variant GGCAGAGGUCAACACAGCGUGGCAAAGGGGCCGUGGCUAGACUGAC [C8G U28G U32C C45A], the self-cleavage came out at 0.01.

For the variant GGCAGAGGUCAACACAGCAUGGCAAAGUGGCUGUGGAUAGACUGCC [C8G G19A C37A], the self-cleavage came to 0.01.

Consider GGCAGAGGUCAACACAGCGUGGCAAAGAGGCUGUGGCAAGACUGCC [C8G U28A U38A], for which the self-cleavage came to 0.05.

As for GGCAGAGGUCAACACAGCGUUGGAAAGUGGCCGUUGCUAGACUGCC [C8G G21U C23G U32C G35U], the self-cleavage came to 0.01.

For the variant GGCAGAGGUCAACACAGCGUGGCAAAGGGGCGGUGGCUAGACUGCC [C8G U28G U32G], the self-cleavage amounted to 0.03.

As for GGCAGAGGUCAAGACAGCGGGGCAAAGAGGCUGUAGCUAGACUGCC [C8G C13G U20G U28A G35A], the self-cleavage is 0.08.

Consider GGCAGAGGUCAACACAUCGUGGCAAAGUGGUUGUGGCUAGACUGCC [C8G G17U C31U], for which the self-cleavage was 0.03.

For the variant GGCAGAGGUCAACACAGCGUGGCAAAGUGGCUGGGGCUGGACGGCC [C8G U34G A39G U43G], the self-cleavage was determined as 0.02.

Regarding GGCAGAGGUCAACACAGCGUGGCAAAGUGCCUGAGGCUAGACUGCC [C8G G30C U34A], the self-cleavage came to 0.

In the case of GGCAGAGGUCAACAGAGCGUGGCAAAGUGGCUGUGGCUAGAUUGCC [C8G C15G C42U], the self-cleavage worked out at 0.01.

For GGCAGAGGUCAAUACAGCGUGGCAAAGUGGCCGUGGCUAUACUGCC [C8G C13U U32C G40U], the self-cleavage worked out at 0.03.
